Out of some 52,000 compounds screened, about 4,300 (8.3%) were called active. Cut-off read from the data, not from the text of the source: active = survival mostly below about 52% (no sharp cut-off); inactive = mostly above about 56%. This is one part of the list.
test system: DeltatarO mutant; experiment: growth inhibition of S. aureus wild type versus tarO mutant, primary screen, teichoic acid synthesis inhibitors, RN4220, OD600 (AID 463173); details: OD600, 18 h, hits give low values, screened at 18.75 µg/mL (by protocol)

Row | Compound | survival
1 | Cc1nn(CC(=O)O)c2c1C1C(C2)C1(C)C (stereo not given) | inactive: 91%
2 | Cc1oc2ncnc(N3CCOCC3)c2c1C(=O)N(Cc1ccccc1)C(C)C | inactive: 81%
3 | CC1=NN(C(=O)c2cccnc2)C(O)(c2ccccc2)C1 (stereo not given) | inactive: 94%
4 | O=C1Nc2ccccc2C12Nc1ccccc1CO2 (stereo not given) | inactive: 75%
5 | O=C(C1CCN(Cc2ccccc2)CC1)N1CCN(c2ccccc2F)CC1 | inactive: 89%
6 | COc1ccc(S(=O)(=O)NCC(c2ccco2)S(=O)(=O)c2cccs2)cc1C (stereo not given) | inactive: 83%
7 | Cc1c(C(=O)N2CCCCCC2)c(S(=O)(=O)NCc2ccc(Br)cc2)c(C)n1C | inactive: 99%
8 | Cc1ccc(-c2nc3ccccn3c2Nc2ccccc2C)s1 | active: 21%
9 | COC(=O)c1ccc(NC(=O)NCCn2nnc3cc(S(=O)(=O)N(C)C)ccc32)cc1 | inactive: 81%
10 | COc1ccc(Nc2cc(C(=O)NC3CCC(C)CC3)c3ccccc3n2)cc1OC (stereo not given) | inactive: 86%
11 | Cc1cc(C)nc(SCC(=O)OCN2C(=O)c3ccccc3C2=O)n1 | inactive: 97%
12 | CC(C)(C)NC(=O)Cn1c(SCC(=O)c2ccc3c(c2)OCCO3)nc2ccccc21 | inactive: 86%
13 | COc1ccc(CNC(=O)CN2C(=O)CSc3ccc(S(=O)(=O)N4CCOCC4)cc32)c(OC)c1 | inactive: 91%
14 | COc1cccc(CNC(=O)c2cc(S(=O)(=O)N3CCCCC3)cn2C)c1 | active: 0%
15 | CC(=O)Nc1ccc(NC(=O)CSc2nc3ccccc3nc2N2CCC(C)CC2)cc1 | inactive: 75%
16 | O=c1c(S(=O)(=O)c2ccccc2)cn(Cc2cccc(F)c2)c2cc(N3CCOCC3)c(F)cc12 | inactive: 78%
17 | COc1ccc(OC(=O)c2nc(SCc3ccc(F)cc3)ncc2Cl)cc1 | inactive: 70%
18 | Cc1ccc(C2=NN(CC(=O)NCCC(C)C)C(=O)CC2)cc1 | active: 37%
19 | COc1cccc(-c2nnc(-c3ccccc3NC(=O)c3cccc(C(F)(F)F)c3)o2)c1 | inactive: 68%
20 | COc1ccc(NC(=O)c2ccco2)cc1NC(=O)COc1ccccc1 | active: 45%
21 | Cc1ccc(C(=O)Nc2nnc(S(=O)(=O)N3c4ccccc4CC3C)s2)cc1 (stereo not given) | active: 30%
22 | Cn1c(=O)n(C)c2cc(N3CCOCC3)c(NC(=O)c3ccccc3Br)cc21 | inactive: 82%
23 | CCc1ccc(S(=O)(=O)c2cn(C)c3cc(N4CCC(C)CC4)c(F)cc3c2=O)cc1 | inactive: 78%
24 | Cc1cc(C)cc(NC(=O)CN2C(=O)c3ccccc3Sc3ncccc32)c1 | inactive: 90%
25 | CCCCN(CC)CCCNC(=O)c1cc2c(=O)[nH]c3ccccc3c2s1 | inactive: 151%

— PubChem BioAssay AID463173 (ICCB-Longwood Screening Facility, Harvard Medical School, 2010)
